Experimental data published in publication PMC7215681.
No constants are given. Whether binding was seen depends on the method and setting. Binding seen in cells or lysates may run through a third protein. Some binding calls cover weakened binding; strength is not graded here.

The chains behind the UniProt entries cited, without tags or fusion partners.
UniProt P22199: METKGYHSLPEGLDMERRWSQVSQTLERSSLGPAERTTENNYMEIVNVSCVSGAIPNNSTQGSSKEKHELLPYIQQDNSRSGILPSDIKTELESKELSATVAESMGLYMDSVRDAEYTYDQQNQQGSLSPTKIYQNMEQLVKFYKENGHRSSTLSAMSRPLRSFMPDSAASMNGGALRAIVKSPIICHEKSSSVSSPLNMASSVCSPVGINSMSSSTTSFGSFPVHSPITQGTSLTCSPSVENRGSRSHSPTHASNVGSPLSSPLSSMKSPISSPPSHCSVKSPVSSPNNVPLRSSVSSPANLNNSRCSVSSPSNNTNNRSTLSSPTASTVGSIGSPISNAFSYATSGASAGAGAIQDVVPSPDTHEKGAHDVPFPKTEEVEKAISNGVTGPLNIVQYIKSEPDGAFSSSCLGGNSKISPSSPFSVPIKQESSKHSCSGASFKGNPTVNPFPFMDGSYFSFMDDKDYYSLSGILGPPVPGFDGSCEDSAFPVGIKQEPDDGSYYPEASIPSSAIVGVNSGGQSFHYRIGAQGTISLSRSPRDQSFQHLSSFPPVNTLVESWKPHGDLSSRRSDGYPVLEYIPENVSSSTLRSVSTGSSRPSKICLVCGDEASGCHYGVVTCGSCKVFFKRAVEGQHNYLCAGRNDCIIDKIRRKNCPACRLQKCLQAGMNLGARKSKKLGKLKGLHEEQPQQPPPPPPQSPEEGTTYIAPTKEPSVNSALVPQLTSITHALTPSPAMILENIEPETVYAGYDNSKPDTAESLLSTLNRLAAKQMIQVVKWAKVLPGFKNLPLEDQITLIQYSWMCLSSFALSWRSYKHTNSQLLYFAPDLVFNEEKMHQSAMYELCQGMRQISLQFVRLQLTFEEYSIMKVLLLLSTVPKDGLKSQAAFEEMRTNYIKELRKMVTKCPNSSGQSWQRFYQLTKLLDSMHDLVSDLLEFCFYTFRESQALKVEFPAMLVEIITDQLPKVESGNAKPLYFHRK
UniProt P26817: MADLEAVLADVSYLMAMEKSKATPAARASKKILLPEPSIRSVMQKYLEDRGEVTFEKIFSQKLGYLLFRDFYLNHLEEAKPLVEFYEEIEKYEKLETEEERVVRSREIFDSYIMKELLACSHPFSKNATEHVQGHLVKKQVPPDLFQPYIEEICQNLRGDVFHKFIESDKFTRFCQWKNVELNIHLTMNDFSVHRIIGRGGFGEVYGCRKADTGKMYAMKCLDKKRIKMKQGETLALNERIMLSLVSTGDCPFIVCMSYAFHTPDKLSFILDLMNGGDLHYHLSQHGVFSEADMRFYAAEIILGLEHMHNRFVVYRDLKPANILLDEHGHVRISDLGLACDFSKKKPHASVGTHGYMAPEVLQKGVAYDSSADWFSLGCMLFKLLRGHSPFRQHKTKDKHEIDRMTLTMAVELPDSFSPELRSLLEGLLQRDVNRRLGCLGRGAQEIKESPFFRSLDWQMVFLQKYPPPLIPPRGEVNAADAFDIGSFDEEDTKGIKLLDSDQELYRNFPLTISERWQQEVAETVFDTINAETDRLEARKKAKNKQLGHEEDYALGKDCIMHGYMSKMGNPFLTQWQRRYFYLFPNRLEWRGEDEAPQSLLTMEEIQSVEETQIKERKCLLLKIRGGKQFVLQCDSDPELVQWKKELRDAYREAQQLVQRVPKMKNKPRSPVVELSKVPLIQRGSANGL
UniProt Q62833: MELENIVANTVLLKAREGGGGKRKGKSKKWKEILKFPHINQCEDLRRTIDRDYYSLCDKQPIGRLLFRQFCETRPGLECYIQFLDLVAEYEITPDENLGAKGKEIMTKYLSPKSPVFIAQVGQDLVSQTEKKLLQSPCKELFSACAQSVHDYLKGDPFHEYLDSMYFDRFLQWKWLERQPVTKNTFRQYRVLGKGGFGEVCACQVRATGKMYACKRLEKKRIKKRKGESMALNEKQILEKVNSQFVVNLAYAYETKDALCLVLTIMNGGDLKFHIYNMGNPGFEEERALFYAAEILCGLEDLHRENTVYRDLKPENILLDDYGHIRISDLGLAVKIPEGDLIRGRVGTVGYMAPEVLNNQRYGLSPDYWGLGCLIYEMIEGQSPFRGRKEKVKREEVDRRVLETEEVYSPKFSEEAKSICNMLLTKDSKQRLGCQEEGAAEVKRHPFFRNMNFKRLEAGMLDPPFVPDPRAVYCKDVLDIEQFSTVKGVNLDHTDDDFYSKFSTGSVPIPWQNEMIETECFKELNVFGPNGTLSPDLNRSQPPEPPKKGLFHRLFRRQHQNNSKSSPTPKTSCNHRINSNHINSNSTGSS

Legend:
[1] = target: T1, G protein-coupled estrogen receptor (rat (endogenous in H9c2)) (UniProt O08878); assay: co-IP; GPER immunoprecipitated (anti-GPER on Protein A/G-Sepharose) from H9c2 extracts, immunoblot for GRK2 or GRK5; cells treated 15 min with vehicle, 100 nM G1 or 100 nM aldosterone
T1 sequence: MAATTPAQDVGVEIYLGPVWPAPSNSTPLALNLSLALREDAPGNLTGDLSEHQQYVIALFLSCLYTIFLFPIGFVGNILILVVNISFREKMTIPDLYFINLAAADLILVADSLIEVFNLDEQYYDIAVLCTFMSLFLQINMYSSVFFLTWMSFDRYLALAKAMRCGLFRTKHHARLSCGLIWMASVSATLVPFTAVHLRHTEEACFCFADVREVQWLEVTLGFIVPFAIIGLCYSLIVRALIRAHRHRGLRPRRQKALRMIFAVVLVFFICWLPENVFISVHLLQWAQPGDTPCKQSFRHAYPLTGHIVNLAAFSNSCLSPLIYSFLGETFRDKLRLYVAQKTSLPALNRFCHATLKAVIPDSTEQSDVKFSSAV

[2] = target: T1, G protein-coupled estrogen receptor (rat (endogenous in H9c2)); assay: co-IP; GPER immunoprecipitated from H9c2 extracts, immunoblot for GRK2; the sample without GPER agonist (vehicle, DMSO)
[3] = target: mineralocorticoid receptor (rat (endogenous in H9c2)) (UniProt P22199); assay: co-IP; MR immunoprecipitated (anti-MR on Protein A/G-Sepharose, overnight) from H9c2 whole cell extracts (20 mM Tris pH 7.4, 137 mM NaCl, 1% Nonidet P-40, 20% glycerol), immunoblot for GRK2 or GRK5; cells treated 15 min with vehicle, 100 nM G1, 100 nM aldosterone, 10 µM isoproterenol or 10 µM formoterol, or 30 min with 10 µM salbutamol with or without 10 µM U73122
[4] = target: mineralocorticoid receptor (rat (endogenous in H9c2)) (UniProt P22199); assay: co-IP; MR immunoprecipitated from nuclear fraction extracts of H9c2 cells (NE-PER fractionation), untreated or 100 nM aldosterone 30 min, immunoblot for GRK5
[5] = target: mineralocorticoid receptor (rat (endogenous in H9c2)) (UniProt P22199); assay: co-IP; MR immunoprecipitated from cytosolic fraction extracts of H9c2 cells (NE-PER fractionation), untreated or 100 nM aldosterone 30 min, immunoblot for GRK5

Row | binding [1] | binding [3] | binding [5] | Sequence | binding [2] | binding [4]
1 | binds | no binding |  | G protein-coupled receptor kinase 2 (from UniProt P26817 1-689) (enzyme) | no binding (condition: without GPER agonist (vehicle)) | 
2 | no binding | binds | binds | G protein-coupled receptor kinase 5 (from UniProt Q62833 1-590) (enzyme) |  | no binding (condition: in nuclear fraction extracts)
